The structures appear in SMILES notation. Screen size: about 48,000 compounds; about 1,200 (2.5%) were called active. Inconclusive results (about 2%) are left out.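 The calls were made as follows: active = activation of at least 60% and not above a set upper limit (about 1 call in 100 departs from these limits); inconclusive = activation of 40% to 60%, or above that upper limit; inactive = activation under 40%.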 This is one part of the list.

Sequence of UniProt O75388 (O75388 whole entry, looked up): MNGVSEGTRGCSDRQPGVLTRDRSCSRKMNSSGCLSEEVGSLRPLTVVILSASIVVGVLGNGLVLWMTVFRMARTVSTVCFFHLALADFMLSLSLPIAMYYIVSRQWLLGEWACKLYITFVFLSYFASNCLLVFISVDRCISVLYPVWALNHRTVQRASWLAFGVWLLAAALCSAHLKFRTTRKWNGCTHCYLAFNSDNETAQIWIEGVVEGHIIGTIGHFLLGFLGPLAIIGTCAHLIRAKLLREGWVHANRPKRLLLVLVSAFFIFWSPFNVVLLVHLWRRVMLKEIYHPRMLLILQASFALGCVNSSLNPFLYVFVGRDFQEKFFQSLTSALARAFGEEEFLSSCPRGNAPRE

In this assay the target is Probable G-protein coupled receptor 32 (Homo sapiens) (UniProt O75388). Put plainly: qHTS for Agonists of Human Resolvin D1 Receptor DRV1. Also: 0% is about no effect. The note with it: CHO-K1 GPR32 beta-arrestin PathHunter luminescence, 90 min; at 76.9 µM; hits give high values; zero percent set by DMSO-only wells. The gist of the method:
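Step 1: seed CHO-K1 GPR32 beta-arrestin cells, 2,500/well, overnight at 37 °C. Step 2: add compounds, 90 min at 37 °C. Step 3: detection reagent, 1 h ambient, then luminescence.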
On the technique in general: qHTS replaces the single test concentration by a dilution series.
With `COc1ccc(-c2cc(C(F)(F)F)nc(S(C)(=O)=O)n2)cc1`, the activation was active: 109%.
To `CC(C)(C)C(=O)Nc1ccc2nc(SCC(=O)N3CCOCC3)sc2c1` belongs inactive: -2.15%; to `CSc1nc2c(c(=O)[nH]1)C(c1cccc(F)c1F)CC(=O)N2` (stereo not drawn), inactive: -13.2%; to `O=S(=O)(Nc1cc(F)ccc1F)c1ccc2[nH]c3c(c2c1)CCCC3`, inactive: 24.6%.
To `COc1ccc(NS(=O)(=O)c2cc(Br)cc3c2N(C(=O)C2CC2)CC3)cc1OC` belongs inactive: 16.7%; to `CC(C)c1ccc(NC(=O)CS(=O)(=O)c2cccc3nsnc23)cc1`, inactive: -2.51%; to `COc1cccc(CNC(=O)c2ccc3c(c2)c(C)c(C)n3Cc2ccccc2)c1OC`, inactive: -15.3%.
To `CCCCN(CCCC)CCNC(=O)Cn1nc(C)n2c(cc3sccc32)c1=O` belongs inactive: -0.832%; to `Cn1cc(C2=C(c3ccc(Cl)cc3Cl)C(=O)NC2=O)c2ccccc21`, inactive: -34.8%.
For the compound `COc1ccc(-c2cc(C(F)(F)F)nc(SCCC(=O)Nc3ccccc3F)n2)cc1`, the activation was inactive: -2.21%.
In the case of `Cc1ccc2occ(CC(=O)N(Cc3ccc(Cl)cc3)C3CCS(=O)(=O)C3)c2c1` (stereo not drawn), the activation is inactive: -8.8%.
To `O=c1c2oc3ccccc3c2n(Cc2cccc(Cl)c2)c(=O)n1Cc1ccco1` belongs inactive: -4.65%; to `CCOC(=O)c1ccccc1NC(=O)CSc1ccc(-c2cccs2)nn1`, inactive: -19.8%; to `Cc1cc(-c2nc3ncccc3o2)ccc1NC(=O)COc1ccccc1C`, inactive: 3.06%.
With `O=C(Cc1ccccc1)NC1CC(=O)N(c2ccccc2)C1` (stereo not drawn), the activation was inactive: -9.06%.
To `Cc1cccc(OCC(=O)Nc2nc3c(s2)CC(C(C)(C)C)CC3)c1C` (stereo not drawn) belongs inactive: -0.447%; to `COc1ccccc1N1CCN(C(=O)CN2C(=O)COc3ccc(S(=O)(=O)N4CCCCCC4)cc32)CC1`, inactive: -1.21%.
To `CCc1ccc(Nc2nn(-c3ccc(OC(F)(F)F)cc3)nc2C(C)=O)cc1` belongs inactive: 3.69%.
To `Cc1ccc(-c2noc(CNS(=O)(=O)c3ccc(F)cc3)n2)cc1` belongs inactive: -11.2%; to `Cn1cc(S(=O)(=O)c2cccc(Cl)c2)c(=O)c2cc(F)c(N3CCN(c4ccc(F)cc4)CC3)cc21`, inactive: -4.26%; to `Cc1nnc(N2CCN(C(=O)NC(C)C)CC2)c2nn(-c3ccccc3)c(C)c12`, inactive: 8.51%.
As for `Cc1c(NC(=O)c2cc(-c3ccc(F)cc3)on2)c(=O)n(-c2ccccc2)n1C`, the activation is inactive: 0.945%.
For `CCN(CC)c1ccc(NC(=O)c2cnc3c(-c4ccccc4)c(C)nn3c2C)c(C)c1` the value was inactive: -13%; for `COc1ccc(S(=O)(=O)c2cn(CC(=O)Nc3cc(C)ccc3C)c3ccccc3c2=O)cc1`, inactive: 10.9%; for `COc1ccc(S(=O)(=O)n2nc(-c3ccco3)nc2NCc2ccc(N(C)C)cc2)cc1`, inactive: -7.56%.
To `Cc1ccc(CNC(=O)N2CCC(CN3CCC(C)CC3)CC2)cc1` belongs inactive: 3.23%; to `CCN1CCN(Cc2nc3cc(NC(=O)c4cc(OC)c(OC)c(OC)c4)ccc3n2CC)CC1`, inactive: -0.243%.
To `CCC1CN(C(=O)NCc2ccc(C)cc2)c2cc(Cl)ccc2O1` (stereo not drawn) belongs inactive: -20.5%.
Regarding `COc1ccc(NC(=O)Cn2cnc3sc(C)c(S(=O)(=O)N4CCN(c5ccccc5OC)CC4)c3c2=O)cc1OC`, the activation was inactive: 6.52%.
As for `Cc1ccc2scc(N3CCc4ccccc4C3)c(=O)c2c1`, the activation is inactive: -43.2%.
To `CCc1ccccc1NC(c1nnc(-c2cccc(F)c2)o1)c1ccc(F)cc1Cl` (stereo not drawn) belongs inactive: -28.6%.
To `CC(C)c1ccc(NC(=O)CN2C(=O)COc3ccc(S(=O)(=O)N4CCCCC4)cc32)cc1` belongs inactive: -21.4%; to `Cc1ccc(C)c(N2CCN(C(=O)Cn3ncc4c(=O)oc5ccccc5c43)CC2)c1`, inactive: 3.02%.
To `COc1cc(OC)cc(-c2nc3nc(C)c(CCC(=O)Nc4ccc(C)c(C)c4)c(C)n3n2)c1` belongs inactive: -2.8%; to `COc1cccc(C(=O)N2CCN(CCc3ccncc3)CC2)c1`, inactive: -9.22%.
Turning to `CN(C)c1ccc(CNC(=O)c2cccc(NC(=O)N3CCSc4ncccc43)c2)cc1`, the activation was inactive: 3.44%.
For `Cc1cccc(C(=O)NCC(=O)OCc2cc(=O)n3nc(CC(C)C)sc3n2)c1` the value was inactive: -13.7%; for `CCC(C(=O)NCc1ccco1)n1nc(C)c2c(C)n(-c3ccc(C)cc3)nc2c1=O` (stereo not drawn), inactive: 16.5%; for `Cn1c(=O)c2c(-c3cccc(Br)c3)n(C(C)(C)CO)cc2n(C)c1=O`, inactive: 19.7%.
For the compound `Fc1ccc(Nc2ncnc3onc(-c4cccc(Cl)c4)c23)c(F)c1`, the activation is inactive: 8.5%.
For `COc1cccc2c1cc1c(=O)n(CC(=O)N3CCN(c4ccc(Cl)cc4)CC3)nc(C)n12` the value was inactive: -1.44%; for `Cc1ccc(S(=O)(=O)NC2(C(F)(F)F)NC(=O)N(CCc3ccccc3)C2=O)cc1` (stereo not drawn), inactive: 20.8%.
For `COc1ccccc1NC(=O)Cn1c(SCC(=O)N(C)c2ccccc2)nc2ccccc21` the value was inactive: -11.8%; for `Cc1cc2nc(-c3ccc(OCc4ccccc4Cl)cc3)cc(C(F)(F)F)n2n1`, inactive: 5.15%.
For `O=C1N(Cc2ccccc2)c2ccc(Cl)cc2C1(O)c1c[nH]c2ccccc12` (stereo not drawn) the value was active: 116%; for `CCOc1ccccc1NC(=O)CSc1nnc2[nH]c(=O)cc(-c3ccccc3)n12`, inactive: -2.08%.
For `Cc1cc(C)cc(NC(=O)Cn2cc(S(=O)(=O)NC(C)(C)C)c(S(=O)(=O)NC(C)(C)C)c2)c1`, the activation was inactive: -6.32%.
To `O=C(NCCn1cc(SCc2ccccc2Cl)c2ccccc21)c1cccs1` belongs inactive: 31.8%.
On to `O=C(Nc1ccccc1Cl)C1CCN(c2nc3ccccc3nc2C(F)(F)F)CC1`, for which the activation is inactive: -19.9%.
To `COc1cc(OC)c(/C=C2/C(=O)Nc3ccccc32)c(OC)c1` belongs inactive: 2.24%; to `COc1ccc(-c2nc3c4ccccc4n(CC(=O)N4CCN(c5ccccc5OC)CC4)c(=O)n3n2)cc1`, inactive: -7.81%.
For `CCN(CC)CCCNC(=O)CN1C(=O)CCn2nc(-c3cn(C)c4ccccc34)cc21` the value was inactive: -8.41%; for `COc1ccc(-c2nc(CSCC(=O)N3CCN(c4cccc(C)c4C)CC3)c(C)o2)cc1OC`, inactive: 4.62%.
For `COc1cccc(-n2c(=O)c3c4c(sc3n(Cc3ccc(C)cc3)c2=O)CCCC4)c1` the value was inactive: -6.35%.
Take `Cc1ccc2nc(-c3ccccc3F)c(Nc3ccc(Cl)cc3)n2c1`: the activation was inactive: -13.3%.
For `COc1ccc(CCNC(=O)c2ccc3c(c2)c(C)c(C)n3Cc2ccc(F)cc2)c(OC)c1OC` the value was inactive: -13.8%.
For `Cc1nnc(NC(=O)CSCc2cc(=O)c3cc(Cl)ccc3[nH]2)s1` the value was inactive: -59.2%.
For `O=S(=O)(NCc1ccc(F)cc1)c1ccc(-c2cnc(C3CC3)o2)cc1` the value was inactive: -19.9%.
Consider `COc1cccc(C(=O)Nc2ccccc2C(=O)OCc2cc(=O)n3nc(C4CC4)sc3n2)c1`, for which the activation was inactive: -6.24%.
Regarding `Cc1c(C(=O)N2CCCC2)oc2c1-c1nn(CC(=O)NCCCOC(C)C)cc1CC2`, the activation is inactive: 12.4%.
To `Cc1ccc(C(=O)c2cn(CC(=O)NC3CCCCC3)c3nc(C)ccc3c2=O)cc1` belongs inactive: 9.3%; to `COc1ccccc1-n1ncc2c(=O)[nH]c(SCC(=O)Nc3ccc(Cl)cc3)nc21`, inactive: -4.67%; to `Cc1ccc(CNC(=O)c2cccn2-c2nnc(N3CCCCC3)s2)cc1`, inactive: -20.5%.
For the compound `COc1cc(-c2nc(Cn3nnc(C(=O)Nc4ccccc4)c3C)c(C)o2)cc(OC)c1OC`, the activation is inactive: 8.5%.
As to `O=C(NC1CC(=O)N(c2cccc(F)c2)C1)C1CCCC1` (stereo not drawn), the activation is inactive: -5.91%.
To `Cc1c(C)c2c(cc(C)c3c(-c4ccccc4)coc32)oc1=O` belongs inactive: 4.54%; to `O=C(c1cccn1-c1nnc(N2CCCC2)s1)N1CCN(c2ccccc2)CC1`, inactive: -5.37%.
To `CN(C)CCN(Cc1ccccc1)S(=O)(=O)c1ccc2[nH]c(=O)ccc2c1` belongs inactive: 3.02%; to `O=C(Nc1cc2c(cc1C(=O)c1ccccc1)OCCO2)c1ccc(Br)cc1`, inactive: -6.98%; to `Cc1ccccc1-c1nc(SCC(=O)NCc2ccco2)c2c(=O)n(C)c(=O)n(C)c2n1`, inactive: 30.2%.
For `CCOC(=O)COc1ccc2c(C)c(CCN(CC)CC)c(=O)oc2c1Cl` the value was inactive: -3.41%; for `COc1ccc2oc(=O)c(-c3csc(-c4ccc(Br)cc4)n3)cc2c1`, inactive: 7.82%; for `COc1cccc(-n2cc(C(=O)NCCc3ccc(C)cc3)c3ccccc3c2=O)c1`, inactive: -29%.
Turning to `COc1ccc(NC(=O)c2sc3nc[nH]c(=O)c3c2C)cc1Cl`, the activation is inactive: -0.825%.
To `Cn1c(=O)n(-c2ccc3c(c2)OCO3)c2nc(-c3ccccc3)nc(C(N)=O)c21` belongs inactive: -0.0169%.
To `COc1ccc(C)cc1NC(=O)c1ccc2c(SCC(=O)O)c3c(nc2c1)CCCC3` belongs inactive: -13.9%; to `CCOc1ccc(NC(=O)C2CC(=O)N(c3ccc(C(C)C)cc3)C2)cc1` (stereo not drawn), inactive: 42.1%; to `CCOC(=O)CC(NC(=O)Cn1nnc(-c2ccc(C(F)(F)F)cc2)n1)c1ccc(OC)cc1` (stereo not drawn), inactive: 35.8%.
`Cc1cc(C)cc(NC(=O)CSc2cc(C)[nH]c(=O)n2)c1`: the activation was inactive: 11.9%.
To `COc1cccc2c1cc1c(=O)n(CC(=O)N3CCN(c4cccc(C)c4)C(C)C3)nc(C)n12` (stereo not drawn) belongs inactive: -5.74%; to `CCCC1=Nc2cc(C(=O)NC3CCCC3)ccc2Sc2ccc(C)cc21`, inactive: -29.3%; to `COc1cc(CN(C(=O)COc2ccc(C)cc2)c2ccccn2)cc(OC)c1OC`, inactive: -6.61%.
To `CC(=O)Nc1ccc(-c2cc(C(=O)O)c3c(-c4ccccc4)[nH]nc3n2)cc1` belongs inactive: -2.33%.

The values above are taken from PubChem BioAssay AID1346428 (National Center for Advancing Translational Sciences (NCATS), 2018).
